Lines with a small IC50 respond at low doses; where the fit passes the top or lowest dose, that dose stands as a limit. The AUC spans the tested range (256-fold, ending at the top dose) of the same fit; the more sensitive the line, the further below 1. For part of these data: Any top dose called inferred was calculated from the reported fits. For part of these data: An entry number marks a drug with two screens in the source, which often give different values.
Tests used:
Experiment in all cases: Viability of human cancer cell lines after 72 h of drug (GDSC screen)
ZM-447439 = compound: COc1cc2c(Nc3ccc(NC(=O)c4ccccc4)cc3)ncnc2cc1OCCCN1CCOCC1 [ZM-447439]; details: top dose inferred
Method: (§1)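 Human cancer cell lines in 384-well plates, medium with 10% serum, drug for 72 h over a 256-fold dose range (nine 2-fold or five 4-fold steps up to the top dose). Adherent lines were fixed and stained with the nucleic acid dye Syto60, suspension lines read with resazurin; signal relative to control wells, capped at 0 and 100%. One two-parameter sigmoid per drug and line, fitted in a mixed model over all curves with the slope shared within a line.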

PD-0332991 = compound: CC(=O)c1c(C)c2cnc(Nc3ccc(N4CCNCC4)cn3)nc2n(C2CCCC2)c1=O [PD-0332991]
Method: as §1

AZD6244 = compound: Cn1cnc2c(F)c(Nc3ccc(Br)cc3Cl)c(C(=O)NOCCO)cc21 [AZD6244]; details: screen: GDSC drug entry 1062
Method: as §1

| Cell Line | AUC (ZM-447439) | IC50 (ZM-447439) [µM] | AUC (PD-0332991) | IC50 (PD-0332991) [µM] | AUC (AZD6244) | IC50 (AZD6244) [µM] |
| --- | --- | --- | --- | --- | --- | --- |
| NUGC-4 (stomach, adherent, top dose 4 µM) | 0.988 | > 4 | 0.939 | > 4 | 0.901 | > 4 |
| NY (osteosarcoma, adherent, top dose 4 µM) | 0.942 | > 4 | 0.97 | > 4 | 0.987 | > 4 |
| OACM5-1 (oesophagus, semi-adherent, top dose 4 µM) | 0.986 | > 4 | 0.986 | > 4 | 0.986 | > 4 |
| OACp4C (oesophagus, adherent, top dose 4 µM) | 0.826 | 3.09 | 0.828 | 3.17 | 0.846 | 3.84 |
| OAW-28 (ovary, adherent, top dose 2 µM) | 0.809 | 1.4 | 0.946 | > 2 | 0.728 | 0.674 |
| OC-314 (ovary, adherent, top dose 4 µM) | 0.924 | > 4 | 0.936 | > 4 | 0.991 | > 4 |
| OCI-AML2 (acute myeloid leukaemia, suspension, top dose 4 µM) | 0.962 | > 4 | 0.944 | > 4 | 0.973 | > 4 |
| OCI-AML3 (acute myeloid leukaemia, suspension, top dose 4 µM) | 0.977 | > 4 | 0.959 | > 4 | 0.304 | 0.0772 |
| OCI-AML5 (acute myeloid leukaemia, suspension, top dose 4 µM) | 0.725 | 1.02 | 0.816 | 1.97 | 0.986 | > 4 |
| OCI-LY7 (B-cell lymphoma, suspension, top dose 4 µM) | 0.689 | 0.717 | 0.584 | 0.399 | 0.997 | > 4 |
| OCI-LY-19 (B-cell lymphoma, suspension, top dose 4 µM) | 0.838 | 2.4 | 0.816 | 2 | 0.984 | > 4 |
| OCI-M1 (acute myeloid leukaemia, suspension, top dose 4 µM) | 0.991 | > 4 | 0.995 | > 4 | 0.993 | > 4 |
| OCUB-M (breast, adherent, top dose 4 µM) | 0.838 | 2.19 | 0.972 | > 4 | 0.938 | > 4 |
| OCUM-1 (stomach, adherent, top dose 4 µM) | 0.9 | > 4 | 0.895 | > 4 | 0.967 | > 4 |
| OE19 (oesophagus, adherent, top dose 4 µM) | 0.921 | > 4 | 0.966 | > 4 | 0.884 | > 4 |
| OE21 (oesophagus, adherent, top dose 4 µM) | 0.863 | > 4 | 0.674 | 0.924 | 0.928 | > 4 |
| OE33 (oesophagus, adherent, top dose 4 µM) | 0.964 | > 4 | 0.795 | 2.27 | 0.951 | > 4 |
| ONS-76 (medulloblastoma, adherent, top dose 4 µM) | 0.87 | > 4 | 0.57 | 0.394 | 0.518 | 0.282 |
| OPM-2 (myeloma, suspension, top dose 4 µM) | 0.994 | > 4 | 0.993 | > 4 | 0.993 | > 4 |
| OS-RC-2 (kidney, adherent, top dose 4 µM) | 0.87 | > 4 | 0.612 | 0.584 | 0.745 | 1.77 |
| OSC-19 (head and neck, adherent, top dose 4 µM) | 0.845 | 3.07 | 0.718 | 1.07 | 0.961 | > 4 |
| OSC-20 (head and neck, adherent, top dose 2 µM) | 0.921 | > 2 | 0.816 | 1.38 | 0.899 | > 2 |

| Cell Line | AUC (ZM-447439) | IC50 (ZM-447439) [µM] | AUC (PD-0332991) | IC50 (PD-0332991) [µM] | AUC (AZD6244) | IC50 (AZD6244) [µM] |
| --- | --- | --- | --- | --- | --- | --- |
| OV-56 (ovary, adherent, top dose 4 µM) | 0.961 | > 4 | 0.729 | 1.09 | 0.878 | 3.78 |
| OV-90 (ovary, adherent, top dose 4 µM) | 0.925 | > 4 | 0.937 | > 4 | 0.936 | > 4 |
| OVCA420 (ovary, adherent, top dose 4 µM) | 0.982 | > 4 | 0.949 | > 4 | 0.82 | 3.39 |
| OVCAR-4 (ovary, adherent, top dose 4 µM) | 0.903 | > 4 | 0.951 | > 4 | 0.875 | > 4 |
| OVCAR-8 (ovary, adherent, top dose 4 µM) | 0.926 | > 4 | 0.971 | > 4 | 0.958 | > 4 |
| OVK-18 (ovary, adherent, top dose 4 µM) | 0.742 | 1.34 | 0.786 | 1.94 | 0.895 | > 4 |
| OVKATE (ovary, adherent, top dose 4 µM) | 0.979 | > 4 | 0.931 | > 4 | 0.978 | > 4 |
| OVMIU (ovary, adherent, top dose 4 µM) | 0.904 | > 4 | 0.931 | > 4 | 0.696 | 1.02 |
| P12-ICHIKAWA (T-cell lymphoblastic leukaemia, suspension, top dose 4 µM) | 0.724 | 0.906 | 0.84 | 1.89 | 0.988 | > 4 |
| P30-OHK (lymphoblastic leukaemia, suspension, top dose 4 µM) | 0.807 | 1.65 | 0.685 | 0.743 | 0.978 | > 4 |
| P31-FUJ (acute myeloid leukaemia, suspension, top dose 4 µM) | 0.753 | 1.06 | 0.996 | > 4 | 0.996 | > 4 |
| P32-ISH (Burkitt lymphoma, suspension, top dose 4 µM) | 0.784 | 1.27 | 0.969 | > 4 | 0.995 | > 4 |
| PA-1 (ovary, adherent, top dose 4 µM) | 0.931 | > 4 | 0.867 | 2.38 | 0.985 | > 4 |
| PA-TU-8902 (pancreas, adherent, top dose 4 µM) | 0.905 | > 4 | 0.842 | 3.53 | 0.593 | 0.47 |
| PANC-02-03 (pancreas, adherent, top dose 4 µM) | 0.935 | > 4 | 0.812 | 2.68 | 0.958 | > 4 |
| PANC-03-27 (pancreas, adherent, top dose 4 µM) | 0.895 | > 4 | 0.964 | > 4 | 0.842 | 2.56 |
| PANC-04-03 (pancreas, adherent, top dose 4 µM) | 0.976 | > 4 | 0.795 | 3.35 | 0.685 | 1.13 |
| PANC-10-05 (pancreas, adherent, top dose 2 µM) | 0.975 | > 2 | 0.919 | > 2 | 0.867 | > 2 |
| PC-3 (prostate, adherent, top dose 2 µM) | 0.918 | > 2 | 0.734 | 0.683 | 0.921 | > 2 |
| PC-3 [JPC-3] (lung adenocarcinoma, adherent, top dose 4 µM) | 0.972 | > 4 | 0.899 | > 4 | 0.969 | > 4 |
| PC-14 (lung adenocarcinoma, adherent, top dose 4 µM) | 0.952 | > 4 | 0.955 | > 4 | 0.989 | > 4 |
| PCI-15A (head and neck, adherent, top dose 4 µM) | 0.988 | > 4 | 0.845 | 2.93 | 0.988 | > 4 |

| Cell Line | AUC (ZM-447439) | IC50 (ZM-447439) [µM] | AUC (PD-0332991) | IC50 (PD-0332991) [µM] | AUC (AZD6244) | IC50 (AZD6244) [µM] |
| --- | --- | --- | --- | --- | --- | --- |
| PCI-30 (head and neck, adherent, top dose 4 µM) | 0.921 | > 4 | 0.759 | 1.7 | 0.946 | > 4 |
| PE/CA-PJ15 (head and neck, adherent, top dose 4 µM) | 0.962 | > 4 | 0.889 | > 4 | 0.739 | 1.28 |
| PEO1 (ovary, adherent, top dose 4 µM) | 0.914 | > 4 | 0.832 | 2.7 | 0.987 | > 4 |
| PF-382 (T-cell lymphoblastic leukaemia, suspension, top dose 4 µM) | 0.874 | 3.06 | 0.884 | 3.4 | 0.991 | > 4 |
| PFSK-1 (medulloblastoma, adherent, top dose 4 µM) | 0.879 | > 4 | 0.923 | > 4 | 0.973 | > 4 |
| PSN1 (pancreas, adherent, top dose 4 µM) | 0.892 | 3.4 | 0.966 | > 4 | 0.559 | 0.352 |
| PWR-1E (prostate, adherent, top dose 4 µM) | 0.941 | > 4 | 0.985 | > 4 | 0.968 | > 4 |
| QGP-1 (pancreas, adherent, top dose 4 µM) | 0.974 | > 4 | 0.948 | > 4 | 0.977 | > 4 |
| QIMR-WIL (acute myeloid leukaemia, suspension, top dose 4 µM) | 0.935 | > 4 | 0.917 | > 4 | 0.985 | > 4 |
| RC-K8 (B-cell lymphoma, suspension, top dose 4 µM) | 0.993 | > 4 | 0.993 | > 4 | 0.992 | > 4 |
| RCC10RGB (kidney, adherent, top dose 4 µM) | 0.969 | > 4 | 0.871 | > 4 | 0.849 | > 4 |
| RCC-AB (kidney, adherent, top dose 4 µM) | 0.965 | > 4 | 0.823 | 3.38 | 0.956 | > 4 |
| RCC-FG2 (kidney, adherent, top dose 4 µM) | 0.926 | > 4 | 0.782 | 2.16 | 0.879 | > 4 |
| RCC-JF (kidney, adherent, top dose 4 µM) | 0.927 | > 4 | 0.578 | 0.42 | 0.563 | 0.379 |
| RCC-JW (kidney, adherent, top dose 4 µM) | 0.946 | > 4 | 0.74 | 1.24 | 0.961 | > 4 |
| RCC-MF (kidney, adherent, top dose 4 µM) | 0.971 | > 4 | 0.797 | 2.57 | 0.854 | > 4 |
| RCH-ACV (B-cell leukaemia, suspension, top dose 4 µM) | 0.726 | 0.953 | 0.562 | 0.358 | 0.991 | > 4 |
| RCM-1 (large intestine, adherent, top dose 4 µM) | 0.948 | > 4 | 0.918 | > 4 | 0.589 | 0.461 |
| REH (B-cell leukaemia, suspension, top dose 4 µM) | 0.841 | 2.61 | 0.608 | 0.49 | 0.979 | > 4 |
| RERF-LC-MS (lung adenocarcinoma, adherent, top dose 4 µM) | 0.968 | > 4 | 0.945 | > 4 | 0.943 | > 4 |

Reference: the supplement of paper PMC4967469
